# Reference: the supplement of paper PMC8728848
# Some of the results follow.
# How the values were obtained:
# Assay in all cases: glycan array binding signal (z-score within array); higher = stronger binding
# Conditions in all cases: glycan notation: IUPAC condensed, linker removed
# [1] = molecular target: Neu5Ac(a2-6)Gal(b1-4)GlcNAc(b1-6)GalNAc
# Method in brief: (§1)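 The binding signal is a Z-score computed within each array. Data were drawn from 3228 arrays in the Consortium for Functional Glycomics database, restricted to those with a known protein sequence. Scores were averaged over arrays of the same protein sequence at different concentrations or buffers, and over linkers, and negative values can be taken as non-binding.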
# [2] = molecular target: Neu5Ac(a2-6)Gal(b1-4)GlcNAc(b1-6)[Gal(b1-3)GlcNAc(b1-3)]Gal(b1-4)Glc
# Method in brief: as §1
# [3] = molecular target: Neu5Ac(a2-6)Gal(b1-4)GlcNAc6S
# Method in brief: as §1
# [4] = molecular target: Neu5Ac(a2-6)GalNAc
# Method in brief: as §1
# [5] = molecular target: Neu5Ac(a2-6)GalNAc(b1-4)GlcNAc
# Method in brief: as §1
# [6] = molecular target: Neu5Ac(a2-6)GalNAc(b1-4)GlcNAc6S
# Method in brief: as §1
# [7] = molecular target: Neu5Ac(a2-6)GlcNAc(b1-4)GlcNAc
# Method in brief: as §1
# [8] = molecular target: Neu5Ac(a2-6)GlcNAc(b1-4)GlcNAc(b1-4)GlcNAc
# Method in brief: as §1
# [9] = molecular target: Neu5Ac(a2-8)Neu5Ac
# Method in brief: as §1
# [10] = molecular target: Neu5Ac(a2-8)Neu5Ac(a2-3)Gal(b1-3)GalNAc(b1-4)[Neu5Ac(a2-8)Neu5Ac(a2-3)]Gal(b1-4)Glc
# Method in brief: as §1
# [11] = molecular target: Neu5Ac(a2-8)Neu5Ac(a2-3)Gal(b1-4)Glc
# Method in brief: as §1
# [12] = molecular target: Neu5Ac(a2-8)Neu5Ac(a2-3)[Gal(b1-3)GalNAc(b1-4)]Gal(b1-4)Glc
# Method in brief: as §1
# [13] = molecular target: Neu5Ac(a2-8)Neu5Ac(a2-3)[GalNAc(b1-4)]Gal(b1-4)Glc
# Method in brief: as §1
# [14] = molecular target: Neu5Ac(a2-8)Neu5Ac(a2-8)Neu5Ac
# Method in brief: as §1
# [15] = molecular target: Neu5Ac(a2-8)Neu5Ac(a2-8)Neu5Ac(a2-3)Gal(b1-4)Glc
# Method in brief: as §1
# [16] = molecular target: Neu5Ac(a2-8)Neu5Ac(a2-8)Neu5Ac(a2-3)[GalNAc(b1-4)]Gal(b1-4)Glc
# Method in brief: as §1
# [17] = molecular target: Neu5Ac(a2-8)Neu5Ac(a2-8)Neu5Ac(a2-8)Neu5Ac(a2-3)[GalNAc(b1-4)]Gal(b1-4)Glc
# Method in brief: as §1
# [18] = molecular target: Neu5Ac(b1-6)GalNAc
# Method in brief: as §1
# [19] = molecular target: Neu5Ac(b2-6)Gal(b1-4)GlcNAc
# Method in brief: as §1
# [20] = molecular target: Neu5Ac(b2-6)GalNAc
# Method in brief: as §1
# [21] = molecular target: Neu5Ac9Ac(a2-3)Gal(b1-3)GlcNAc
# Method in brief: as §1
# [22] = molecular target: Neu5Ac9Ac(a2-3)Gal(b1-4)GlcNAc
# Method in brief: as §1
# [23] = molecular target: Neu5Ac9Ac(a2-6)Gal(b1-4)GlcNAc
# Method in brief: as §1
# [24] = molecular target: Neu5Gc(a2-3)Gal(b1-3)GlcNAc
# Method in brief: as §1
# [25] = molecular target: Neu5Gc(a2-3)Gal(b1-3)[Fuc(a1-4)]GlcNAc
# Method in brief: as §1
# [26] = molecular target: Neu5Gc(a2-3)Gal(b1-4)Glc
# Method in brief: as §1
# [27] = molecular target: Neu5Gc(a2-3)Gal(b1-4)GlcNAc
# Method in brief: as §1
# [28] = molecular target: Neu5Gc(a2-3)Gal(b1-4)[Fuc(a1-3)]GlcNAc
# Method in brief: as §1
# [29] = molecular target: Neu5Gc(a2-6)Gal(b1-4)GlcNAc
# Method in brief: as §1
# [30] = molecular target: Neu5Gc(a2-6)GalNAc
# Method in brief: as §1
# [31] = molecular target: Neu5Gc(b2-6)Gal(b1-4)GlcNAc
# Method in brief: as §1
binder,measurement,setting,value
"StcE (Escherichia coli), O82882.2 (protein) ADNNSAIYFNTSQPINDLQGSLAAEVKFAQSQILPAHPKEGDSQPHLTSLRKSLLLVRPVKADDKTPVQVEARDDNNKILGTLTLYPPSSLPDTIYHLDGVPEGGIDFTPHNGTKKIINTVAEVNKLSDASGSSIHSHLTNNALVEIHTANGRWVRDIYLPQGPDLEGKMVRFVSSAGYSSTVFYGDRKVTLSVGNTLLFKYVNGQWFRSGELENNRITYAQHIWSAELPAHWIVPGLNLVIKQGNLSGRLNDIKIGAPGELLLHTIDIGMLTTPRDRFDFAKDKEAHREYFQTIPVSRMIVNNYAPLHLKEVMLPTGELLTDMDPGNGGWHSGTMRQRIGKELVSHGIDNANYGLNSTAGLGENSHPYVVAQLAAHNSRGNYANGIQVHGGSGGGGIVTLDSTLGNEFSHEVGHNYGLGHYVDGFKGSVHRSAENNNSTWGWDGDKKRFIPNFYPSQTNEKSCLNNQCQEPFDGHKFGFDAMAGGSPFSAANRFTMYTPNSSAIIQRFFENKAVFDSRSSTGFSKWNADTQEMEPYEHTIDRAEQITASVNELSESKMAELMAEYAVVKVHMWNGNWTRNIYIPTASADNRGSILTINHEAGYNSYLFINGDEKVVSQGYKKSFVSDGQFWKERDVVDTREARKPEQFGVPVTTLVGYYDPEGTLSSYIYPAMYGAYGFTYSDDSQNLSDNDCQLQVDTKEGQLRFRLANHRANNTVMNKFHINVPTESQPTQATLVCNNKILDTKSLTPAPEGLTYTVNGQALPAKENEGCIVSVNSGKRYCLPVGQRSGYSLPDWIVGQEVYVDSGAKAKVLLSDWDNLSYNRIGEFVGNVNPADMKKVKAWNGQYLDFSKPRSMRVVYK",glycan array binding signal (z-score),[1],0.003
same,glycan array binding signal (z-score),[2],-0.132
same,glycan array binding signal (z-score),[3],-0.352
same,glycan array binding signal (z-score),[4],-0.384
same,glycan array binding signal (z-score),[5],-0.163
same,glycan array binding signal (z-score),[6],-0.127
same,glycan array binding signal (z-score),[7],-0.156
same,glycan array binding signal (z-score),[8],-0.126
same,glycan array binding signal (z-score),[9],-0.092
same,glycan array binding signal (z-score),[10],-0.162
same,glycan array binding signal (z-score),[11],-0.128
same,glycan array binding signal (z-score),[12],-0.174
same,glycan array binding signal (z-score),[13],-0.293
same,glycan array binding signal (z-score),[14],-0.095
same,glycan array binding signal (z-score),[15],0.545
same,glycan array binding signal (z-score),[16],-0.213
same,glycan array binding signal (z-score),[17],-0.155
same,glycan array binding signal (z-score),[18],-0.711
same,glycan array binding signal (z-score),[19],-0.153
same,glycan array binding signal (z-score),[20],-0.105
same,glycan array binding signal (z-score),[21],-0.193
same,glycan array binding signal (z-score),[22],-0.161
same,glycan array binding signal (z-score),[23],-0.277
same,glycan array binding signal (z-score),[24],-0.187
same,glycan array binding signal (z-score),[25],-0.154
same,glycan array binding signal (z-score),[26],0.108
same,glycan array binding signal (z-score),[27],-0.113
same,glycan array binding signal (z-score),[28],-0.569
same,glycan array binding signal (z-score),[29],-0.504
same,glycan array binding signal (z-score),[30],-0.066
same,glycan array binding signal (z-score),[31],-0.147
